“And” between values parts separate entries of the source, which are not always exact repeats. Identical values can stand only once. The whole screen tested about 360,000 compounds, of which about 11,000 (3.1%) were called active. This list was built around the results that the source calls inconclusive (neither active nor inactive); the mix of calls is not that of the screen. The call rests on the fitted dose curve; in most records, active means well fitted inhibition curve with a large enough effect; inconclusive means small, poorly fitted or top-dose-only effect; inactive means no such curve, though single readings can be large or run the other way. Potencies of inconclusive entries are left out as doubtful fits.
What follows are molecules tested against Schistosoma mansoni thioredoxin glutathione reductase (TGR) (UniProt Q962Y6) (assay: qHTS Assay for the Inhibitors of Schistosoma Mansoni Peroxiredoxins). Details: purified TGR, DTNB reduction, TNB absorbance 405 nm; activity change, negative = inhibition: at 114 µM (top of the series) unless noted.
Method in brief: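 TGR 20 nM + NADPH 100 uM (dispensed conc.), cpd preinc 15 min RT; start with NADPH (500 uM addition) then DTNB (15 mM addition). Kinetic TNB absorbance, 405 nm filter. Four-parameter Hill fit across titration.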
Further: nearly all actives have a fitted effect of over 60% in size.
On the % scale 0 is the no-effect control and ±100 the full control effect; potency means the concentration at half of the fitted maximal effect; tags describe the fitted curve by direction and shape.

| SMILES | Potency | activity change, negative = inhibition |
| --- | --- | --- |
| CCCCS(=O)(=O)c1oc(-c2ccc(F)cc2)nc1S(=O)(=O)c1ccc(C)cc1 | active: 3.16 µM | – |
| CCN(CC)c1ccc(/C=C/C(=O)C2C(=O)C=C(C)OC2=O)cc1 (stereo not drawn) | active: 8.91 µM | – |
| COc1ccccc1NC(=O)COc1ccc(-c2nn(C)c(=O)c3ccccc23)cc1 | inconclusive [inhibitor, single point] | – |
| Cn1cccc1Cc1nnc(SCC(=O)NCc2ccc(F)cc2)n1-c1ccc(F)cc1 | inconclusive [inhibitor, single point] | – |
| CN(Cc1ccccc1)C(=O)N[C@@H](Cc1ccccc1)C(=O)O | – | inactive: 0.916% |
| CCOc1ccc(CC(=O)N/N=C/c2cccnc2)cc1OCC | inconclusive [inhibitor, full curve] | – |
| CC(C)(C)c1cc(C(F)(F)F)nc(SCCCNC(=O)c2ccco2)n1 | inconclusive [inhibitor, full curve, poor fit] | – |
| COc1ccc(C(O)c2nc3ccccc3n2C(C)C)cc1 (stereo not drawn) | – | inactive: 10.8% |
| O=C(COc1cccc2c1CCN(Cc1ccc(Br)cc1)C2=O)NCc1ccco1 | – | inactive: -28.3% |
| Cc1ccc(S(=O)(=O)N2CCC(C(=O)N3CCC[C@H]3C(=O)NCc3ccco3)CC2)cc1 | inconclusive [inhibitor, partial curve, poor fit] | – |
| COc1ccc(CN2C(=O)C(Cc3ccccc3)Nc3ncnc(N4CCc5ccccc5C4)c32)cc1 (stereo not drawn) | inconclusive [inhibitor, partial curve] | – |
| Cc1cccc(NC(=O)CN(C)C(C)C(=O)Nc2ccc(S(=O)(=O)N3CCCC3)cc2)c1C (stereo not drawn) | – | inactive: -9.81% |
| COc1ccc(C(=O)Nc2cc(C(=O)c3ccccc3)c(C)oc2=O)cc1 | active: 6.31 µM | – |
| Cc1ccc(-c2nnc(N(C)C(=O)C3CCCO3)s2)cn1 (stereo not drawn) | inconclusive [inhibitor, partial curve] | – |
| Cn1c(=O)c2c(nc(NN=C3CCCC3)n2C)n(C)c1=O | inconclusive [inhibitor, partial curve] | – |
| Cc1nn(C)cc1CN(C)C(=O)c1ccc(OC2CCN(Cc3ccccn3)CC2)cc1 | inconclusive [inhibitor, full curve, poor fit] | – |
| CCOC(=O)C1=NN(N=O)C2(CC(=O)N(c3cc(C)cc(C)c3)C2=O)C1 (stereo not drawn) | inconclusive [inhibitor, partial curve] | – |
| Cc1ccc(CN(C)CCc2ccccn2)cc1 | inconclusive [inhibitor, single point] | – |
| O=C(CCN1CCOCC1)NNC(=O)Nc1cccc(C(F)(F)F)c1 | – | inactive: 4.24% |
| COc1cc([N+](=O)[O-])ccc1NC(=O)CSc1nc2ccccc2n1-c1ccccc1 | inconclusive [inhibitor, single point] | – |
| COc1ccc(CN2C(=O)NC(=O)/C(=C/c3ccc([N+](=O)[O-])o3)C2=O)cc1 | inconclusive [inhibitor, full curve, poor fit] | – |
| CCOC(=O)C1CCCN(C2CC(=O)N(c3ccc(C)cc3)C2=O)C1 (stereo not drawn) | inconclusive [inhibitor, partial curve] | – |
| Cc1cccc(NC(c2ccccc2F)c2ccc3ccc(C)nc3c2O)n1 (stereo not drawn) | active: 5.01 µM | – |
| CCCOc1ccc(/C=N/NC(=O)CN2CCCCC2)cc1OCC | inconclusive [inhibitor, full curve, poor fit] | – |
| Cc1ccccc1/C=N\NC(=O)c1csnn1 | inconclusive [inhibitor, full curve, poor fit] | – |

| SMILES | Potency | activity change, negative = inhibition |
| --- | --- | --- |
| CCOC(=O)c1[nH]c(C)c(C(=O)NCc2ccc(Cl)cc2)c1C | inconclusive [inhibitor, single point] | – |
| COC(=O)CSc1nnc(NC(=O)C2CC(=O)N(c3ccc(F)cc3)C2)s1 (stereo not drawn) | – | inactive: -6.65% |
| COc1ccc(NC(=O)c2ccc([N+](=O)[O-])o2)cc1 | inconclusive [inhibitor, partial curve] | – |
| C/C(=N\NC(=O)c1ccc([N+](=O)[O-])cc1Cl)c1ccccc1 | – | inactive: 0% |
| COc1ccc(Br)cc1-c1nc(CCl)cs1 | inconclusive [inhibitor, full curve] | – |
| Cc1cc(-c2nnc(CSc3nnc(NC(=O)c4ccc(C(C)(C)C)cc4)s3)o2)ccc1[N+](=O)[O-] | – | inactive: -0.666% |
| COc1ccc(OC)c(Cc2nnc(CCC(=O)NCc3nc4ccccc4s3)o2)c1 | – | inactive: -8.01% |
| O=C(Nc1ccc(Br)cn1)c1ccc([N+](=O)[O-])cc1Cl | inconclusive [inhibitor, single point] | – |
| Cc1ccc2oc3c(c(=O)c2c1)C(c1cccc(Br)c1)N(Cc1ccco1)C3=O (stereo not drawn) | – | inactive: -1.39% |
| Cn1c(SCC(=O)NCc2cccs2)nnc1-c1cccs1 | – | inactive: 1.15% |
| O=C(Nc1cccc(S(=O)(=O)N2CCCCC2)c1)C1CC(=O)N(Cc2ccco2)C1 (stereo not drawn) | inconclusive [inhibitor, partial curve] | – |
| COc1cc2c(cc1OC)C(c1cccs1)N(C(=O)c1cccc(S(=O)(=O)N(C)C)c1)CC2 (stereo not drawn) | inconclusive [inhibitor, partial curve] | – |
| CCN1CCOC(CC(=O)Nc2ccc([N+](=O)[O-])cc2)C1=O (stereo not drawn) | active: 20 µM | – |
| CCN(CC)CCCN1C(=O)C(=O)/C(=C(/O)c2ccc3c(c2)OCCO3)C1c1ccco1 (stereo not drawn) | inconclusive [inhibitor, partial curve] | – |
| O=C1NC(c2ccccc2Cl)=N/C1=C/c1ccco1 | inconclusive [inhibitor, full curve] | – |
| CCOc1ccccc1N1CCN(C(=O)c2cn(CC3CCCCC3)nn2)CC1 | – | inactive: -18.4% |
| COc1ccc2c(-c3ccccc3)cc(N3CCOCC3)nc2c1 | – | inactive: -6.6% |
| O=C1CCSC2(C(=O)N(Cc3ccc(F)cc3)c3ccccc32)N1c1ccc(Cl)cc1 (stereo not drawn) | – | inactive: 4.12% |
| CN(C)c1ccc(Nc2nc(N)c3ccccc3n2)cc1 | inconclusive [inhibitor, partial curve] | – |
| CN(C)C1CCN(C(=O)c2cccc(OC3CCN(S(=O)(=O)N(C)C)CC3)c2)C1 (stereo not drawn) | inconclusive [inhibitor, partial curve] | – |
| Cc1ccc(CS(=O)Cc2ccc(C(=O)NCc3ccccc3)o2)cc1 (stereo not drawn) | inconclusive [inhibitor, partial curve] | – |
| O=C(NNC(=S)Nc1ccccc1)c1cccc(Br)c1 | – | inactive: -39.8% |
| O=C(NCCN1CCOCC1)c1ccc2c(c1)N(Cc1ccccc1)C(=O)CS2 | inconclusive [inhibitor, partial curve] | – |
| CCCCC(=O)NNC(=O)N1c2ccccc2Sc2ccccc21 | – | inactive: -0.795% |
| CCOc1ccc(CCNC(=O)CSc2nnnn2-c2ccccc2)cc1OCC | – | inactive: -9.76% |

| SMILES | Potency | activity change, negative = inhibition |
| --- | --- | --- |
| O=S(=O)(c1ccc2ccccc2c1)N1CCN(C(=S)Nc2ccc(F)cc2)CC1 | – | inactive: -0.798% |
| Oc1cccc2ccc(/C=C/c3ccccc3Br)nc12 | – | inactive: -10.3% |
| CC1CCN(c2nc(NCc3ccco3)nc(N)c2[N+](=O)[O-])CC1 | – | inactive: -13.2% |
| C[C@H](NC(=O)c1nc[nH]c1C(=O)NCCCCCNC(=O)OC(C)(C)C)C(=O)OC(C)(C)C | – | inactive: 0% |
| COC(=O)c1ccc(CSc2ncnc3sc(C)c(C)c23)o1 | inconclusive [inhibitor, partial curve] | – |
| COc1ccc(NC(=O)Cc2nn(C)c(=O)c3ccccc23)c2ncccc12 | – | inactive: 2.34% [at 11.4 µM] |
| CC(C)CC1=NN2C(=N)/C(=C\c3coc4ccccc4c3=O)C(=O)N=C2S1 | inconclusive [inhibitor, partial curve] | – |
| CN(Cc1ccccc1)S(=O)(=O)c1ccc(NC(=O)c2cc(=O)c3ccccc3o2)cc1 | – | inactive: -1.36% |
| CC(C)S(=O)(=O)C1=NSC2=NC(=O)/C(=C\c3ccc(OC(=O)c4ccco4)cc3)C(=N)N21 | inconclusive [inhibitor, partial curve] | – |
| CCCc1ccc(OCc2ccc(C(=O)O)o2)c(OC)c1 | – | inactive: -3.31% |
| CC(=O)N1CCN(c2ccc(NCc3ccc(Br)o3)cc2)CC1 | inconclusive [inhibitor, partial curve] | – |
| CC(=O)N1CCc2cc(Br)cc(S(=O)(=O)N3CCC(C(=O)Nc4ccc(C(C)C)cc4)CC3)c21 | – | inactive: 0.508% |
| CCOC(=O)c1ccc(-n2c(CCC(=O)O)ccc2-c2ccccc2)cc1 | active: 28.2 µM and active: 50.1 µM | – |
| CCOc1ccc(/C=C/c2nc(C#N)c(NC(C)c3ccccc3)o2)cc1 (stereo not drawn) | – | inactive: -5.25% |
| Cc1ccc2ncc(NC(=O)c3ccc(F)cc3)c(=O)n2c1 | inconclusive [inhibitor, single point] | – |
| O=C(Nc1ccnn1C1CCN(C(=O)c2cccc(C(F)(F)F)c2)CC1)C1CC1 | inconclusive [inhibitor, single point] | – |
| CC(C)c1ccc(C(=O)NC(=S)NCc2cccnc2)cc1 | inconclusive [inhibitor, partial curve] | – |
| Cc1ccc(NC(=O)C2Cc3ccccc3C(=O)O2)cc1 (stereo not drawn) | inconclusive [inhibitor, single point] | – |
| C=C1C(=O)C=C2CN(C(=O)c3ccccc3)[C@@](Cc3ccc(F)cc3)(C(=O)OC)[C@@H]12 | active: 10 µM | – |
| O=C(CCS(=O)(=O)c1ccccc1)N(Cc1cccnc1)c1nc2ccc(F)cc2s1 | active: 0.891 µM | – |
| COc1ccc(C(=O)OCC(=O)N2CCOCC2)cc1S(=O)(=O)N1CCOCC1 | – | inactive: -3.56% |
| O=C(NC(=S)Nc1ccc2c(c1)OCO2)c1ccccc1 | active: 14.1 µM | – |
| Cc1cc(C)c2c(CCl)cc(=O)oc2c1 | active: 10 µM | – |
